Some of these densities may be calculated back from excess volumes.

Drawing on a compilation of properties of binary mixtures (doi:10.1021/jp3059905), this text covers mass density for 11 molecules.

This series is described as follows: xn = mol fraction of the nth substance listed. To be noted: 298.15 K, 101 kPa.

As to `CCCC[n+]1ccn(C)c1.O=S(=O)([N-]S(=O)(=O)C(F)(F)F)C(F)(F)F` + CCCCCCCCCC[n+]1ccn(C)c1.O=S(=O)([N-]S(=O)(=O)C(F)(F)F)C(F)(F)F, for the setting “x1 = 1”, the mass density is 1436.9 kg/m3.

`CCCC[n+]1ccn(C)c1.O=S(=O)([N-]S(=O)(=O)C(F)(F)F)C(F)(F)F` + CCCCCCCCn1cc[n+](C)c1.O=S(=O)([N-]S(=O)(=O)C(F)(F)F)C(F)(F)F yielded a mass density (x1 = 1) of 1436.9 kg/m3.

Under “x1 = 1”, `CCCC[n+]1ccn(C)c1.O=S(=O)([N-]S(=O)(=O)C(F)(F)F)C(F)(F)F` + CCCCCC[n+]1ccn(C)c1.O=S(=O)([N-]S(=O)(=O)C(F)(F)F)C(F)(F)F had a mass density of 1436.9 kg/m3.

Molecule `CCCCCCCCCC[n+]1ccn(C)c1.O=S(=O)([N-]S(=O)(=O)C(F)(F)F)C(F)(F)F` + CCCC[n+]1ccn(C)c1.O=S(=O)([N-]S(=O)(=O)C(F)(F)F)C(F)(F)F gave a mass density (x2 = 0.2147) of 1305.9 kg/m3, a mass density (x2 = 0.4052) of 1332.6 kg/m3 and a mass density (x2 = 0.5999) of 1362.8 kg/m3.

For the molecule `CCCCCCCCn1cc[n+](C)c1.O=S(=O)([N-]S(=O)(=O)C(F)(F)F)C(F)(F)F` + CCCC[n+]1ccn(C)c1.O=S(=O)([N-]S(=O)(=O)C(F)(F)F)C(F)(F)F, the mass density is, setting by setting: (x2 = 0) 1322.4 kg/m3; (x2 = 0.2068) 1342.8 kg/m3; (x2 = 0.5017) 1374.3 kg/m3; (x2 = 0.7944) 1409.6 kg/m3.

With `CCCCCC[n+]1ccn(C)c1.O=S(=O)([N-]S(=O)(=O)C(F)(F)F)C(F)(F)F` + CCCC[n+]1ccn(C)c1.O=S(=O)([N-]S(=O)(=O)C(F)(F)F)C(F)(F)F, the mass density by setting is: (x2 = 0) 1373.2 kg/m3; (x2 = 0.5001) 1404.3 kg/m3; (x2 = 0.5894) 1410 kg/m3; (x2 = 0.793) 1423.2 kg/m3.

Consider `CCCCCn1cc[n+](C)c1.O=S(=O)([N-]S(=O)(=O)C(F)(F)F)C(F)(F)F` + CCCC[n+]1ccn(C)c1.O=S(=O)([N-]S(=O)(=O)C(F)(F)F)C(F)(F)F, for which the mass density is, setting by setting: (x2 = 0.2054) 1405 kg/m3; (x2 = 0.3981) 1415.8 kg/m3; (x2 = 0.5057) 1420.7 kg/m3; (x2 = 0.5851) 1424.4 kg/m3; (x2 = 0.8011) 1432.1 kg/m3.

With `CC[n+]1ccn(C)c1.O=S(=O)([N-]S(=O)(=O)C(F)(F)F)C(F)(F)F` + CCCC[n+]1ccn(C)c1.O=S(=O)([N-]S(=O)(=O)C(F)(F)F)C(F)(F)F, the mass density runs as follows: (x1 = 0.2159) 1446.9 kg/m3; (x1 = 0.4997) 1466.1 kg/m3; (x1 = 0.7753) 1492 kg/m3; (x1 = 1) 1519.3 kg/m3.

Consider `Cn1cc[n+](C)c1.O=S(=O)([N-]S(=O)(=O)C(F)(F)F)C(F)(F)F` + CCCC[n+]1ccn(C)c1.O=S(=O)([N-]S(=O)(=O)C(F)(F)F)C(F)(F)F, for which the mass density (x1 = 0.1962) turned out to be 1459.6 kg/m3, the mass density (x1 = 0.498) turned out to be 1498 kg/m3, the mass density (x1 = 0.5859) is listed as 1509.6 kg/m3 and the mass density (x1 = 0.7894) is on record as 1538.7 kg/m3.

In turn, `CCCC[n+]1ccn(C)c1.O=S(=O)([N-]S(=O)(=O)C(F)(F)F)C(F)(F)F` + CC[n+]1ccn(C)c1.O=S(=O)([N-]S(=O)(=O)C(F)(F)F)C(F)(F)F displayed a mass density (x2 = 0) of 1436.9 kg/m3.

`CCCC[n+]1ccn(C)c1.O=S(=O)([N-]S(=O)(=O)C(F)(F)F)C(F)(F)F` + Cn1cc[n+](C)c1.O=S(=O)([N-]S(=O)(=O)C(F)(F)F)C(F)(F)F gave a mass density (x2 = 0) of 1436.9 kg/m3.

As a reminder, the mass density is mass per unit of volume.
